Data published in the BET-seq Pho4 binding data (Le et al. 2018).
The list shows a part of the results. Values were computed here from the reads of four pooled replicates and scatter widely.

Molecular target: T1, Pho4 (S. cerevisiae) (UniProt P07270)
T1 sequence: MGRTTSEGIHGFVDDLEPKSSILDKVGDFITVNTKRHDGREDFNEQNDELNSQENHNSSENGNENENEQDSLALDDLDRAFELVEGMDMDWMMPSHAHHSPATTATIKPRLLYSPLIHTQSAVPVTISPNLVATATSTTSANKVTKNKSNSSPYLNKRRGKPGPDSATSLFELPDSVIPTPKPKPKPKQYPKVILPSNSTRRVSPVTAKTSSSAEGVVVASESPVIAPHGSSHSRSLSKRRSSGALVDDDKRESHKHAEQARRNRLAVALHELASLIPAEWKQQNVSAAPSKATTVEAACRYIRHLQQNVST
Assay: relative binding free energy (BET-seq); higher = weaker binding
Conditions: reference: library average

Row | Sequence | relative binding free energy [kcal/mol]
1 | GGGACCACGTGTGTAG | 0.04
2 | CAGGTCACGTGCGGGT | 0
3 | GGGTGCACGTGGATAT | 0.06
4 | GGGAGCACGTGTTGGT | -0.06
5 | AACGGCACGTGAAAGG | 0.3
6 | GTAGTCACGTGAGGGC | 0.36
7 | AGCGTCACGTGGGGTT | -0.08
8 | GGTGGCACGTGTGTAT | 0.01
9 | GTTGGCACGTGGTAGG | -0.07
10 | GATGTCACGTGAGGTA | 0.38
11 | AATTGCACGTGGGAGG | -0.13
12 | TTAGACACGTGATTGG | 0.23
13 | GAGTTCACGTGTGTAG | 0.21
14 | GGATTCACGTGGTAAT | 0.07
15 | AGGTACACGTGGAGAT | 0.1
16 | GGTAGCACGTGGGGAG | -0.09
17 | ATTTACACGTGGTTAT | 0.16
18 | AATTACACGTGTGTCG | 0.26
19 | TTCTTCACGTGTCGGT | 0.27
20 | TTAGACACGTGGGACG | -0.13
21 | CGGCACACGTGTAGGG | 0.1
22 | GGCTTCACGTGTGTTC | 0.4
23 | ATAGTCACGTGATTAG | 0.19

Row | Sequence | relative binding free energy [kcal/mol]
24 | CTGGTCACGTGATGTC | 0.27
25 | GGTTACACGTGTAAGA | 0.33
26 | GAGACCACGTGGGTGG | -0.14
27 | CTTGTCACGTGTTGTC | -0.08
28 | TTGTGCACGTGGTGAC | -0.21
29 | GTTTGCACGTGCAAGT | -0.01
30 | GTTTGCACGTGTATTT | 0.19
31 | GGATTCACGTGGGAGA | 0.34
32 | GATGGCACGTGAGGTC | 0.26
33 | TGATGCACGTGGGGTT | -0.23
34 | GAGGTCACGTGGTCTT | 0.06
35 | AATAGCACGTGGGCAG | -0.25
36 | AGATGCACGTGAAAGG | 0.21
37 | ATTGTCACGTGTAGAA | -0.01
38 | TGTAGCACGTGGGGCT | -0.19
39 | GATGCCACGTGATTTG | 0.23
40 | TTGGGCACGTGGCGCA | -0.33
41 | TCGGGCACGTGACTGT | 0.1
42 | ATAGTCACGTGGAGAA | 0.07
43 | TGAGTCACGTGACGAG | 0.22
44 | GGAGGCACGTGGTAGC | -0.14
45 | ATGTTCACGTGGTTTA | 0.16
46 | GTTCGCACGTGAAGGC | 0.41

Row | Sequence | relative binding free energy [kcal/mol]
47 | CAGTACACGTGTAGTG | 0.09
48 | GGGTTCACGTGCGGGT | 0.28
49 | GGATGCACGTGTGTGG | 0.05
50 | TATCTCACGTGGGGTG | 0.16
51 | GAAGACACGTGATAGT | 0.29
52 | TGAAGCACGTGGGGAT | -0.15
53 | TTATTCACGTGTCGCG | 0.22
54 | CGGTGCACGTGGTTGT | -0.03
55 | TTTTGCACGTGAGCTG | 0.2
56 | CTTCTCACGTGAGTTT | 0.42
57 | TGTTTCACGTGTTTCT | 0.32
58 | CTAGTCACGTGTGAGT | 0.19
59 | AGGGTCACGTGACGGA | 0.14
60 | GACGGCACGTGAGTGT | 0.31
61 | GATTTCACGTGTGGGT | 0.48
62 | GAGTCCACGTGAGAGG | 0.42
63 | GGTAACACGTGTGTGG | 0.02
64 | GAGGTCACGTGAACGT | 0.24
65 | TTATTCACGTGAGAGA | 0.4
66 | TGTGCCACGTGGTCAG | -0.08
67 | AGTCTCACGTGAGGTA | 0.16
68 | AGGGACACGTGGGGAC | -0.03
69 | GGTGGCACGTGCGAGT | -0.04

Row | Sequence | relative binding free energy [kcal/mol]
70 | TATTGCACGTGTAGAT | 0.2
71 | GTAGGCACGTGGAAGG | 0.05
72 | CATGCCACGTGGAGGT | 0.01
73 | GTTTGCACGTGTGCGG | 0.02
74 | TAAGTCACGTGCAGTT | 0.17
75 | TGGATCACGTGGTATT | 0.17
76 | TAGAACACGTGGTGTT | -0.05
77 | AGTTTCACGTGTGAGC | 0.27
78 | AGTATCACGTGCGTGC | 0.16
79 | GGATGCACGTGAGTGA | 0.19
80 | AGTCGCACGTGGGGGC | -0.13
81 | GGAGGCACGTGACGGA | -0.01
82 | TTTTGCACGTGGTTTC | -0.06
83 | TGGGCCACGTGTTGTG | -0.09
84 | GTGGGCACGTGTGGCG | -0.05
85 | ATCGACACGTGTGTGT | 0.04
86 | AGTTGCACGTGAGGAA | 0.13
87 | CGGTACACGTGAATTG | 0.31
88 | GTCGGCACGTGTTATG | -0.02
89 | AGTAGCACGTGTATGT | 0.08
90 | TAATTCACGTGCGTTG | 0.06
91 | GCGGACACGTGTGTGA | 0.09
92 | GCATCCACGTGTGGGG | 0.19

Row | Sequence | relative binding free energy [kcal/mol]
93 | GAAGGCACGTGTTGGC | -0.09
94 | AGTTACACGTGAGGGC | 0.21
95 | TAGGGCACGTGGGTCG | -0.17
96 | AGCATCACGTGTGGGG | -0.02
97 | GTTCGCACGTGGAAGA | 0.22
98 | AATGTCACGTGTGTAT | 0.09
99 | GTGTGCACGTGGAGAA | 0
100 | GGGCTCACGTGCTTTG | 0.31
101 | AGTGACACGTGTATTT | -0.04
102 | TTTCGCACGTGTCGTA | 0.1
103 | ATTCACACGTGGATGT | 0.11
104 | TGGACCACGTGTGGGC | 0.02
105 | AGATTCACGTGGAGTT | 0.36
106 | GGGTACACGTGTGACG | 0.13
107 | ACGGACACGTGGGCGT | 0
108 | AGTGGCACGTGTGATG | 0
109 | CAATACACGTGGGTTA | 0
110 | ATATCCACGTGGTGTG | -0.13
111 | GGTGTCACGTGCTATA | 0.08
112 | GAATGCACGTGAGGAT | 0.24
113 | TCGGGCACGTGTTAAT | -0.15
114 | CTGGGCACGTGGACTG | -0.16
115 | TTGAGCACGTGGAGCT | 0.05
